Our source for the growth inhibition call values is the antibiotic and cytotoxicity screens of Wong et al. (2023).

Structures are written as SMILES. Some of the results follow.

This test has as its system S. aureus RN4220. Put plainly: growth inhibition call (relative growth <= 0.2). Particulars: 50 µM.
As for `C[C@@H]1CN([C@H](C)CO)C(=O)c2cc(NC(=O)Nc3cccc4ccccc34)ccc2O[C@H]1CN(C)S(=O)(=O)c1ccc(Cl)cc1`, the growth inhibition call is “inactive”.
For `C[C@@H]1CCCCO[C@@H](CN(C)C(=O)Cc2ccccc2)[C@H](C)CN([C@@H](C)CO)C(=O)c2cc(NC(=O)NC3CCCCC3)ccc2O1` the value was “inactive”; for `O=C(C[C@@H]1CC[C@@H]2[C@H](COC[C@H](O)CN2S(=O)(=O)c2ccccc2)O1)NCCN1CCCC1`, “inactive”; for `Cc1ccc(S(=O)(=O)Nc2cccc3c2O[C@H](CN(C)Cc2ccc(C(F)(F)F)cc2)[C@H](C)CN([C@H](C)CO)C3=O)cc1`, “inactive”.
In the case of `Cc1ccc(S(=O)(=O)N(C)C[C@@H]2OCCCC[C@H](C)Oc3ccc(NC(=O)Nc4c(C)noc4C)cc3C(=O)N([C@@H](C)CO)C[C@@H]2C)cc1` it was “inactive”; in that of `COc1ccc2c3c([nH]c2c1)[C@@H](CO)N(C[C@]13CN(CC2CCOCC2)C1)S(=O)(=O)c1cn(cn1)C`, “inactive”; in that of `C[C@@H]1CN([C@H](C)CO)S(=O)(=O)c2ccc(-c3cncnc3)cc2O[C@H]1CN(C)C(=O)Cc1cccnc1`, “inactive”.
As for `C[C@@H]1CCCCO[C@H](CN(C)S(=O)(=O)c2cccs2)[C@H](C)CN([C@@H](C)CO)C(=O)c2cc(NC(=O)C3CCCCC3)ccc2O1`, the growth inhibition call was “inactive”.
For `C[C@@H]1CN([C@H](C)CO)S(=O)(=O)c2ccc(-c3cccc(C#N)c3)cc2O[C@H]1CN(C)C(=O)c1ccncc1` the value was “inactive”; for `COc1ccc2cc1Oc1ccc(cc1)C[C@H]1c3c(cc4c(c3Oc3cc5c(cc3OC)CCN(C)[C@@H]5C2)OCO4)CCN1C`, “inactive”; for `COCC(=O)N1C[C@H](C)[C@@H](OC)CN(C)C(=O)c2ccc(NC(=O)Nc3cccc(F)c3)cc2OC[C@H]1C`, “inactive”.
For `C[C@H](CO)N1C[C@H](C)[C@@H](CN(C)S(=O)(=O)c2ccc(Cl)cc2)OCCCC[C@H](C)Oc2ccc(NC(=O)c3ccccc3)cc2C1=O` the value was “inactive”.
For `NC(=O)NCC#Cc1ccc2c(c1)[C@]1(C(=O)N2)[C@H](c2ccc(OCCO)cc2)N2[C@H](c3ccccc3)[C@H](c3ccccc3)OC(=O)[C@H]2[C@@H]1C(N)=O` the value was “inactive”; for `C[C@@H]1CCCCO[C@H](CN(C)Cc2ccc(Cl)c(Cl)c2)[C@@H](C)CN([C@H](C)CO)C(=O)c2cc(NC(=O)CCC(F)(F)F)ccc2O1`, “inactive”; for `Cc1ccc(O)c(CO)n1`, “inactive”.
For `COc1ccccc1CNC(=O)C[C@@H]1CC[C@H]2[C@@H](COC[C@H](O)CN2C(=O)Nc2ccc(Cl)cc2)O1`, the growth inhibition call was “inactive”.
In the case of `C[C@]12C=CC(=O)C=C1CC[C@@H]1[C@@H]2[C@@H](O)C[C@@]2(C)[C@H]1CC[C@]2(O)C(=O)COC(=O)c1ccc(CO[N+](=O)[O-])cc1` it was “inactive”; in that of `COc1ccc(S(=O)(=O)Nc2ccc3c(c2)C(=O)N([C@@H](C)CO)C[C@@H](C)[C@@H](CN(C)C(=O)Nc2ccc(F)cc2)OCCCC[C@@H](C)O3)cc1`, “inactive”; in that of `CN(C)CCCCNC(=O)[C@H]1C[C@H]2C(=O)N[C@@H](CCCC[N+](C)(C)C)C(=O)N2[C@H]1c1ccc(O)cc1`, “inactive”.
In the case of `CC12CCC(O)CC1=CCC1C2CCC2(C)C(c3cccnc3)=CCC12` (configuration not stated) it was “inactive”; in that of `C[C@@H]1CN([C@@H](C)CO)C(=O)c2cc(-c3ccc(C(=O)N(C)C)cc3)cnc2O[C@@H]1CN(C)C(=O)C1CC1`, “inactive”; in that of `COc1ccc(NC(=O)Nc2ccc3c(c2)C(=O)N([C@H](C)CO)C[C@H](C)[C@@H](CN(C)Cc2ccc(Oc4ccccc4)cc2)O3)cc1`, “inactive”.
Consider `COc1ccc(S(=O)(=O)Nc2ccc3c(c2)C(=O)N([C@@H](C)CO)C[C@@H](C)[C@H](CN(C)C(=O)NC2CCCCC2)OCCCC[C@@H](C)O3)cc1`, for which the growth inhibition call is “inactive”.
In the case of `COCCNC(=O)[C@H]1[C@H](CO)[C@H]2Cn3c(ccc(-c4ccccc4F)c3=O)[C@@H]1N2S(C)(=O)=O`, the growth inhibition call is “inactive”.
For `CC1=NCCC2c3ccc(O)cc3NC12` (configuration not stated) the value was “inactive”.
Regarding `Cc1noc(C)c1S(=O)(=O)N(C)C[C@H]1Oc2ccc(NC(=O)Cc3cn(C)c4ccccc34)cc2CC(=O)N([C@@H](C)CO)C[C@@H]1C`, the growth inhibition call was “inactive”.
In the case of `C[C@H]1CN([C@@H](C)CO)C(=O)c2c(c3ccccc3n2C)-c2ccccc2CO[C@@H]1CN(C)Cc1ccc(F)cc1` it was “inactive”.
